These results are taken from PMC9911399, “Two distinct binding modes provide the RNA-binding protein RbFox with extraordinary sequence specificity”.

T1: RBFOX1 RRM RbFoxmut (Fox-RRM*) (Homo sapiens, UniProt Q9NWB1 109-208, R118D;E147R;N151S;E152T)
T1 sequence: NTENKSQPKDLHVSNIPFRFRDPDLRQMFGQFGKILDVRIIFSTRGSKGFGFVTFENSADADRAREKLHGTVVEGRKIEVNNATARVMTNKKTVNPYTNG

B1: AAGUCAC (DNA:RNA)
RNA: GGGAGACCGGAAUUCAGAUUGUCCAAGUCACUUAAAUCCCGUCGUAGCCACCA
DNA 1: CAATCTGAATTCCGGTCTCCC
DNA 2: TGGTGGCTACGACGGGATT
B2: AAGUCUG (DNA:RNA)
RNA: B1 RNA with A30U, C31G
DNA 1: CAATCTGAATTCCGGTCTCCC
DNA 2: TGGTGGCTACGACGGGATT
B3: CCUCUUG (DNA:RNA)
RNA: GGGAGACCGGAAUUCAGAUUGUCCCCUCUUGUUAAAUCCCGUCGUAGCCACCA
DNA 1: CAATCTGAATTCCGGTCTCCC
DNA 2: TGGTGGCTACGACGGGATT
B4: AGAUCGC (DNA:RNA)
RNA: B1 RNA with A26G, G27A, A30G
DNA 1: CAATCTGAATTCCGGTCTCCC
DNA 2: TGGTGGCTACGACGGGATT
B5: UAUGAGC (DNA:RNA)
RNA: B1 RNA with A25U, G27U, U28G, C29A, A30G
DNA 1: CAATCTGAATTCCGGTCTCCC
DNA 2: TGGTGGCTACGACGGGATT
B6: AAUACAU (DNA:RNA)
RNA: B1 RNA with G27U, U28A, C31U
DNA 1: CAATCTGAATTCCGGTCTCCC
DNA 2: TGGTGGCTACGACGGGATT
B7: GUAAGUC (DNA:RNA)
RNA: B1 RNA with A25G, A26U, G27A, U28A, C29G, A30U
DNA 1: CAATCTGAATTCCGGTCTCCC
DNA 2: TGGTGGCTACGACGGGATT
B8: UAAUGAA (DNA:RNA)
RNA: B1 RNA with A25U, G27A, C29G, C31A
DNA 1: CAATCTGAATTCCGGTCTCCC
DNA 2: TGGTGGCTACGACGGGATT
B9: AUUCCCC (DNA:RNA)
RNA: B1 RNA with A26U, G27U, U28C, A30C
DNA 1: CAATCTGAATTCCGGTCTCCC
DNA 2: TGGTGGCTACGACGGGATT
B10: CCCGUCG (DNA:RNA)
RNA: B3 RNA with U27C, C28G, U30C
DNA 1: CAATCTGAATTCCGGTCTCCC
DNA 2: TGGTGGCTACGACGGGATT
B11: GAUCAUG (DNA:RNA)
RNA: B3 RNA with C25G, C26A, U29A
DNA 1: CAATCTGAATTCCGGTCTCCC
DNA 2: TGGTGGCTACGACGGGATT
B12: AUACGCU (DNA:RNA)
RNA: B1 RNA with A26U, G27A, U28C, C29G, A30C, C31U
DNA 1: CAATCTGAATTCCGGTCTCCC
DNA 2: TGGTGGCTACGACGGGATT
B13: CGCUGAG (DNA:RNA)
RNA: B1 RNA with A25C, A26G, G27C, C29G, C31G
DNA 1: CAATCTGAATTCCGGTCTCCC
DNA 2: TGGTGGCTACGACGGGATT
B14: GCGAGGG (DNA:RNA)
RNA: B3 RNA with C25G, U27G, C28A, U29G, U30G
DNA 1: CAATCTGAATTCCGGTCTCCC
DNA 2: TGGTGGCTACGACGGGATT
B15: AGGGAAA (DNA:RNA)
RNA: B1 RNA with A26G, U28G, C29A, C31A
DNA 1: CAATCTGAATTCCGGTCTCCC
DNA 2: TGGTGGCTACGACGGGATT
B16: UAGAGAG (DNA:RNA)
RNA: B1 RNA with A25U, U28A, C29G, C31G
DNA 1: CAATCTGAATTCCGGTCTCCC
DNA 2: TGGTGGCTACGACGGGATT
B17: AGCCCUA (DNA:RNA)
RNA: B1 RNA with A26G, G27C, U28C, A30U, C31A
DNA 1: CAATCTGAATTCCGGTCTCCC
DNA 2: TGGTGGCTACGACGGGATT
B18: UUUGGGC (DNA:RNA)
RNA: B1 RNA with A25U, A26U, G27U, U28G, C29G, A30G
DNA 1: CAATCTGAATTCCGGTCTCCC
DNA 2: TGGTGGCTACGACGGGATT
B19: ACAUCUA (DNA:RNA)
RNA: B1 RNA with A26C, G27A, A30U, C31A
DNA 1: CAATCTGAATTCCGGTCTCCC
DNA 2: TGGTGGCTACGACGGGATT
B20: AUCAGCG (DNA:RNA)
RNA: B1 RNA with A26U, G27C, U28A, C29G, A30C, C31G
DNA 1: CAATCTGAATTCCGGTCTCCC
DNA 2: TGGTGGCTACGACGGGATT
B21: UAAUGGU (DNA:RNA)
RNA: B1 RNA with A25U, G27A, C29G, A30G, C31U
DNA 1: CAATCTGAATTCCGGTCTCCC
DNA 2: TGGTGGCTACGACGGGATT
B22: AACUAAU (DNA:RNA)
RNA: B1 RNA with G27C, C29A, C31U
DNA 1: CAATCTGAATTCCGGTCTCCC
DNA 2: TGGTGGCTACGACGGGATT
B23: GUAUAAU (DNA:RNA)
RNA: B1 RNA with A25G, A26U, G27A, C29A, C31U
DNA 1: CAATCTGAATTCCGGTCTCCC
DNA 2: TGGTGGCTACGACGGGATT
B24: CCAUAAA (DNA:RNA)
RNA: B1 RNA with A25C, A26C, G27A, C29A, C31A
DNA 1: CAATCTGAATTCCGGTCTCCC
DNA 2: TGGTGGCTACGACGGGATT
B25: GCUGUCC (DNA:RNA)
RNA: B3 RNA with C25G, C28G, U30C, G31C
DNA 1: CAATCTGAATTCCGGTCTCCC
DNA 2: TGGTGGCTACGACGGGATT
B26: UACUGCG (DNA:RNA)
RNA: B1 RNA with A25U, G27C, C29G, A30C, C31G
DNA 1: CAATCTGAATTCCGGTCTCCC
DNA 2: TGGTGGCTACGACGGGATT
B27: GGGCUAG (DNA:RNA)
RNA: B3 RNA with C25G, C26G, U27G, U30A
DNA 1: CAATCTGAATTCCGGTCTCCC
DNA 2: TGGTGGCTACGACGGGATT
B28: GCGGCAA (DNA:RNA)
RNA: B1 RNA with A25G, A26C, U28G, C31A
DNA 1: CAATCTGAATTCCGGTCTCCC
DNA 2: TGGTGGCTACGACGGGATT
B29: CAAAUCG (DNA:RNA)
RNA: B3 RNA with C26A, U27A, C28A, U30C
DNA 1: CAATCTGAATTCCGGTCTCCC
DNA 2: TGGTGGCTACGACGGGATT
B30: ACAUGGA (DNA:RNA)
RNA: B1 RNA with A26C, G27A, C29G, A30G, C31A
DNA 1: CAATCTGAATTCCGGTCTCCC
DNA 2: TGGTGGCTACGACGGGATT
B31: UGUACGA (DNA:RNA)
RNA: B1 RNA with A25U, A26G, G27U, U28A, A30G, C31A
DNA 1: CAATCTGAATTCCGGTCTCCC
DNA 2: TGGTGGCTACGACGGGATT

Substitutions are numbered along the chain they refer to; changes in the protein carry UniProt numbers. The list shows a part of the results.

The target in this assay is T1, RBFOX1 RRM RbFoxmut (Fox-RRM*). In words: EMSA; HiTS-Eq, 1 nM pool, 10 min; buffer printed only for the single-RNA assays: 10 mM Tris pH 7.5, 150 mM NaCl, 3.4 mM EDTA, 0.001% NP-40, 30 C. The following applies: tags: His6 N-terminal (pET28a); label: 5' 32P. The method, boiled down: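 A pool of RNA with 7 randomized nucleotides, 5′-radiolabelled and with DNA-annealed flanks, was equilibrated at 1 nM for 10 min in 50 µL with purified RbFox RRM, wild type or mutant, across increasing protein concentrations. Free RNA was separated by 8% native PAGE, excised, reverse-transcribed, barcoded by PCR and sequenced. Relative association constants were obtained from read-count changes of each RNA species versus the control reaction and normalised to the cognate motif.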
On to B1, for which the binding signal is 0.0691 KA relative to UGCAUGU.

As to B2, the binding signal was 0.0685 KA relative to UGCAUGU.

On to B3, for which the binding signal is 0.102 KA relative to UGCAUGU.

Regarding B4, the binding signal was 0.079 KA relative to UGCAUGU.

With B5, the binding signal is 0.109 KA relative to UGCAUGU.

B6: the binding signal was 0.0922 KA relative to UGCAUGU.

As for B7, the binding signal is 0.0771 KA relative to UGCAUGU.

For the molecule B8, the binding signal is 0.0815 KA relative to UGCAUGU.

For the molecule B9, the binding signal is 0.0549 KA relative to UGCAUGU.

Take B10: the binding signal was 0.101 KA relative to UGCAUGU.

On to B11, for which the binding signal was 0.102 KA relative to UGCAUGU.

Turning to B12, the binding signal was 0.0878 KA relative to UGCAUGU.

As to B13, the binding signal is 0.102 KA relative to UGCAUGU.

Take B14: the binding signal was 0.0739 KA relative to UGCAUGU.

Regarding B15, the binding signal is 0.0963 KA relative to UGCAUGU.

As to B16, the binding signal is 0.0939 KA relative to UGCAUGU.

Consider B17, for which the binding signal is 0.0818 KA relative to UGCAUGU.

For B18, the binding signal was 0.0802 KA relative to UGCAUGU.

As to B19, the binding signal was 0.104 KA relative to UGCAUGU.

For the molecule B20, the binding signal was 0.133 KA relative to UGCAUGU.

With B21, the binding signal was 0.111 KA relative to UGCAUGU.

Regarding B22, the binding signal is 0.0802 KA relative to UGCAUGU.

On to B23, for which the binding signal was 0.114 KA relative to UGCAUGU.

Turning to B24, the binding signal is 0.124 KA relative to UGCAUGU.

For the molecule B25, the binding signal was 0.0678 KA relative to UGCAUGU.

B26: the binding signal is 0.0912 KA relative to UGCAUGU.

Turning to B27, the binding signal was 0.134 KA relative to UGCAUGU.

For the molecule B28, the binding signal is 0.0597 KA relative to UGCAUGU.

For the molecule B29, the binding signal was 0.077 KA relative to UGCAUGU.

As for B30, the binding signal was 0.0672 KA relative to UGCAUGU.

In the case of B31, the binding signal is 0.157 KA relative to UGCAUGU.
